Test results published in article doi:10.1101/577437 (bioRxiv, 2019).

Experiments:
NRAS (residues 1-172) = NRAS (residues 1-172) (UniProt P01111); assay: NMR titration
[1] = target: HRAS wild-type (residues 1-171) (UniProt P01112); assay: NMR titration

B1: human BRAF RBD ([…]) (domain or fragment)
chain: not shown
Q: What does the source list for B1?
A: binding result (NRAS (residues 1-172)): binds; binding result [1]: binds
